Measured values as given in patent US20240166593A1, “LIPIDS SUITABLE FOR NUCLEIC ACID DELIVERY” (RAMOT AT TEL-AVIV UNIVERSITY LTD., priority 2021, published 2024).

Tested on: SARS-CoV-2 specific T-cell response
Test: RBD-hFc mRNA-LNP vaccination, ELISPOT assay for IFN-γ response in splenocytes
Format: in vivo, BALB/c mice and C57BL6 mice
Conditions: C57BL6 mice

## CCCCCCN(CCCCCC)CCOC(=O)CCCCCCCCCN(CCO)CCCCCCCCCC(=O)OCCN(CCCCCC)CCCCCC [DSL2-50]
  cellular response (SARS-CoV-2 specific T-cell response): robust cellular response
